# The campaign covered roughly 330,000 compounds. About 4,200 (1.3%) were called active. The shares of active, inactive and inconclusive entries below differ from those in the screen. Calls come from the whole dose curve; as a rule, active = well fitted activation curve with a large enough effect; inconclusive = small, poorly fitted or top-dose-only effect; inactive = no such curve, though single readings can be large or run the other way. Where the call is inconclusive, the potency comes from a doubtful curve fit.
# Test: qHTS screen for small molecules that induce genotoxicity in human embryonic kidney (HEK293T) cells expressing luciferase-tagged ELG1; note: nearly all actives have a fitted effect of over 60% in size
# Details: HEK293T ELG1-luciferase reporter, luminescence, 16 h; series mostly up to 46 µM
# Procedure, shortened: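 HEK293T cells expressing luciferase-tagged ELG1 were exposed to compound or DMSO vehicle for 16 hr at 37 °C and 5% CO2. Luciferase activity was then measured with ONE-Glo after 30 min at room temperature.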
# Potency is the fitted concentration of half-maximal effect; tags give direction and shape of the fitted curve.
row,SMILES,Potency
1,Cc1ccccc1/C(N)=N/OC(=O)/C=C/c1ccccc1,"inconclusive: 20.6 µM [activator, partial curve]"
2,Cc1ccc(C)c(N2CCN(c3cnn(-c4nc5ccccc5s4)c(=O)c3Cl)CC2)c1,active: 18.4 µM
3,CCc1ccc(CCC(=O)Nc2sc3c(c2C#N)CCCC3)o1,"inconclusive: 25.9 µM [activator, partial curve, poor fit]"
4,COc1cccc(N=Nc2ccc3ccccc3c2O)c1,"inconclusive: 0.708 µM [activator, single point]"
5,Cc1ccc2oc(/N=C(\N)NC(=O)C3CC3)nc2c1,"inconclusive: 0.517 µM [activator, full curve]"
6,Cc1cc(C)c(NC(=O)CS)c(Cl)c1,inactive
7,O=C(Nc1cccc([N+](=O)[O-])c1)C12CC3CC(C1)CC(n1cnc([N+](=O)[O-])n1)(C3)C2,inactive
8,CN1/C(=C\C=C2/C(=O)Oc3ccccc3C2=O)C(C)(C)c2ccccc21,"inconclusive: 32.6 µM [activator, partial curve, poor fit]"
9,O=C(CCCN1C(=O)c2ccccc2C1=O)Nc1ccc(S(=O)(=O)N2CCCCC2)cc1,inactive
10,O=C(Nc1nnc(-c2ccco2)s1)C1CC1,"inconclusive: 25.9 µM [activator, single point]"
11,CCOc1cc(/C=N/NC(=O)Nc2ccccc2)ccc1O,"inconclusive: 18.3 µM [activator, partial curve, poor fit]"
12,COc1ccc(-c2csc(NCc3ccco3)n2)cc1C,"inconclusive: 16.4 µM [activator, partial curve]"
13,CC1(C)CC(=O)C2=C(C1)N=C1c3ccccc3C(=O)C1C2c1ccc(Cl)cc1 (stereo not given),inactive
14,O=C(O)c1ccc(COc2cccc(CO)c2)cc1,"inconclusive: 18.4 µM [activator, partial curve, poor fit]"
15,O=C1/C(=C/Nc2cccc([N+](=O)[O-])c2)CCc2ccccc21,"inconclusive: 5.17 µM [activator, full curve]"
16,Cc1ccc(N=Nc2ccc(O)c3ncccc23)cc1,"inconclusive: 4.11 µM [activator, full curve]"
17,COC(=O)c1cc(C(=O)NCCN2C(=O)S/C(=C\c3cccs3)C2=O)cc([N+](=O)[O-])c1,inactive
18,CCOc1ccc(NC(=O)NCC2CCN(Cc3ccc(F)cc3)CC2)cc1,inactive
19,CCOC(=O)C1CCN(C(=O)c2cc3cc4ccc(C)cc4nc3o2)CC1,"inconclusive: 1.64 µM [activator, full curve]"
20,O=C(COC(=O)C12CC3CC(CC(C3)C1)C2)Nc1ccc([N+](=O)[O-])cc1Br,inactive
21,CC1CCCN(c2c3c(nc4ccccc24)CCCC3)C1 (stereo not given),inactive
22,COC(=O)c1ccc(C)c(NC(=O)CCn2[nH]c(=O)ccc2=O)c1,inactive
23,COc1ccc(C2/C=C\CN(C(=O)OCc3ccccc3)CC(=O)N2Cc2ccc(F)cc2)cc1 (stereo not given),inactive

row,SMILES,Potency
1,CS(=O)(=O)N1CCc2cc(S(=O)(=O)N3CCN(Cc4ccc5c(c4)OCO5)CC3)ccc21,inactive
2,O=C1c2ccccc2C(=O)N1CCOc1cccc(Br)c1,"inconclusive: 20.6 µM [activator, partial curve, poor fit]"
3,O=C(CCl)N1CCN(S(=O)(=O)c2ccc3ccccc3c2)CC1,inactive
4,CC(C)Oc1ccc(OCCn2c(=S)[nH]c3c(N)ncnc32)cc1,"inconclusive: 18.3 µM [activator, partial curve]"
5,CCC(=O)Nc1cccc(NC(=S)NC(=O)c2cccs2)c1,"inconclusive: 18.4 µM [activator, partial curve, poor fit]"
6,COC(=O)c1sc(NC(=S)NC(=O)c2ccccc2F)nc1C,"inconclusive: 0.259 µM [activator, full curve]"
7,COc1ccc(NC(=O)c2cc3ccccc3cc2OC)cc1,"inconclusive: 9.2 µM [activator, partial curve]"
8,COc1cccc(OCc2cc(C(=O)N3CCC(c4ccncc4)CC3)no2)c1,inactive
9,O=C(N/N=C/c1ccccc1O)NC12CC3CC(CC(C3)C1)C2,"inconclusive: 23.1 µM [activator, partial curve, poor fit]"
10,Cc1cc(C(=O)Cn2nc(C(=O)O)c3ccccc3c2=O)c(C)n1-c1ccc(F)cc1,"inconclusive: 20.6 µM [activator, single point]"
11,Cc1ccc(C(=O)Nc2ccc3c(c2)OCCO3)c(Cl)c1,"inconclusive: 0.326 µM [activator, full curve, poor fit]"
12,Nc1nn(-c2ccccc2)c(N)c1N=Nc1ccccc1F,"inconclusive: 1.16 µM [activator, full curve]"
13,COc1ccc(C(=O)NCCCCCCNC(=O)c2ccc(OC)cc2)cc1,"inconclusive: 18.3 µM [activator, single point]"
14,CCOc1ccc(-n2c(C)cc(C(=O)CCl)c2C)cc1,"inconclusive: 32.6 µM [activator, partial curve, poor fit]"
15,Cc1cc(C(=O)N/N=C/c2cc(Br)ccc2OC(=O)c2ccccc2)n[nH]1,"inconclusive: 29.1 µM [activator, single point]"
16,N#CCC(=O)Nc1ccc(C(=O)OCC(=O)NC(=O)Nc2ccc3c(c2)OCCO3)cc1,"inconclusive: 29.1 µM [activator, single point]"
17,CCN(CC)C(=O)Oc1ccc2ccccc2c1Cl,inactive
18,Cc1ccc(N/N=C(\C#N)C(=N)N2CCCCCC2)cc1,active: 1.83 µM
19,CCn1c(=O)n(CC)c2cc(S(=O)(=O)N3CCCCC3)c(C)cc21,"inconclusive: 3.55 µM [activator, full curve]"
20,Cc1nc2ccc(NC(=O)c3cccc(C(F)(F)F)c3)cc2o1,"inconclusive: 32.6 µM [activator, partial curve, poor fit]"
21,C/C(=N\N=C\c1ccc(N(C)C)cc1)c1cccc([N+](=O)[O-])c1,"inconclusive: 5.8 µM [activator, partial curve]"
22,CCOCCCNC(=O)c1ccc2c(c1)N=C(CC)c1cc(Br)ccc1S2,"inconclusive: 3.26 µM [activator, full curve]"

# From PubChem BioAssay AID504466 (National Center for Advancing Translational Sciences (NCATS), 2011)
